{"source": "a collection of fitness landscapes (doi:10.1126/science.1257360)", "parents": {"B1": {"name": "PhoQ; a variant is named by its letters at X, in order, P23837 (parent)", "chain": "MKKLLRLFFPLSLRVRFLLATAAVVLVLSLAYGMVALIGYSVSFDKTTFRLLRGESNLFYTLAKWENNKLHVELPENIDKQSPTMTLIYDENGQLLWAQRDVPWLMKMIQPDWLKSNGFHEIEADVNDTSLLLSGDHSIQQQLQEVREDDDDAEMTHSVAVNVYPATSRMPKLTIVVVDTIPVELKSSYMVWSWFIYVLSANLLLVIPLLWVAAWWSLRPIEALAKEVRELEEHNRELLNPATTRELTSLVRNLNRLLKSERERYDKYRTTLTDLTHSLKTPLXXLQXXLRSLRSEKMSVSDAEPVMLEQISRISQQIGYYLHRASMRGGTLLSRELHPVAPLLDNLTSALNKVYQRKGVNISLDISPEISFVGEQNDFVEVMGNVLDNACKYCLEFVEISARQTDEHLYIVVEDDGPGIPLSKREVIFDRGQRVDTLRPGQGVGLAVAREITEQYEGKIVAGESMLGGARMEVIFGRQHSAPKDE"}}, "note": "The list shows a part of the results.", "data": [{"variants_of": "B1", "test": "enrichment ratio after two sorts for PhoP signalling (ratio (wild type AVST 3.29)); higher = more functional", "conditions": "with PhoP (E. coli)", "values": [{"variant": "ISYC", "enrichment ratio": "≤ 0.25"}, {"variant": "MEGS", "enrichment ratio": 1.88}, {"variant": "ICYT", "enrichment ratio": "≤ 0.25"}, {"variant": "WEQA", "enrichment ratio": "≤ 0.25"}, {"variant": "APHF", "enrichment ratio": "≤ 0.25"}, {"variant": "QVWH", "enrichment ratio": "≤ 0.25"}, {"variant": "EFWY", "enrichment ratio": "≤ 0.25"}, {"variant": "PFCM", "enrichment ratio": "≤ 0.25"}, {"variant": "SEPQ", "enrichment ratio": "≤ 0.25"}, {"variant": "IGPY", "enrichment ratio": "≤ 0.25"}, {"variant": "PGTC", "enrichment ratio": "≤ 0.25"}, {"variant": "GRYG", "enrichment ratio": "≤ 0.25"}, {"variant": "EFYV", "enrichment ratio": "≤ 0.25"}, {"variant": "RKQQ", "enrichment ratio": "≤ 0.25"}, {"variant": "WEHN", "enrichment ratio": "≤ 0.25"}, {"variant": "GCYD", "enrichment ratio": "≤ 0.25"}, {"variant": "DIIS", "enrichment ratio": "≤ 0.25"}, {"variant": "NPAQ", "enrichment ratio": "≤ 0.25"}, {"variant": "NTIW", "enrichment ratio": "≤ 0.25"}, {"variant": "RTFM", "enrichment ratio": "≤ 0.25"}, {"variant": "LNPY", "enrichment ratio": "≤ 0.25"}, {"variant": "TIPN", "enrichment ratio": "≤ 0.25"}, {"variant": "YSQD", "enrichment ratio": "≤ 0.25"}, {"variant": "SALS", "enrichment ratio": 11.5}, {"variant": "LHQF", "enrichment ratio": "≤ 0.25"}, {"variant": "NLGY", "enrichment ratio": "≤ 0.25"}, {"variant": "LQRM", "enrichment ratio": "≤ 0.25"}, {"variant": "WSDK", "enrichment ratio": "≤ 0.25"}, {"variant": "VQAH", "enrichment ratio": "≤ 0.25"}, {"variant": "WDGS", "enrichment ratio": "≤ 0.25"}, {"variant": "ASRC", "enrichment ratio": "≤ 0.25"}, {"variant": "HHNA", "enrichment ratio": "≤ 0.25"}, {"variant": "TFRD", "enrichment ratio": "≤ 0.25"}, {"variant": "DKWH", "enrichment ratio": "≤ 0.25"}, {"variant": "HSLP", "enrichment ratio": "≤ 0.25"}, {"variant": "GSIN", "enrichment ratio": "≤ 0.25"}, {"variant": "TKIE", "enrichment ratio": "≤ 0.25"}, {"variant": "FWFF", "enrichment ratio": "≤ 0.25"}, {"variant": "HCWW", "enrichment ratio": "≤ 0.25"}, {"variant": "QNTW", "enrichment ratio": "≤ 0.25"}, {"variant": "LFNR", "enrichment ratio": "≤ 0.25"}, {"variant": "VKAP", "enrichment ratio": "≤ 0.25"}, {"variant": "QTGQ", "enrichment ratio": "≤ 0.25"}, {"variant": "QSCE", "enrichment ratio": "≤ 0.25"}, {"variant": "WRCC", "enrichment ratio": "≤ 0.25"}, {"variant": "FDMM", "enrichment ratio": "≤ 0.25"}, {"variant": "DKIS", "enrichment ratio": "≤ 0.25"}, {"variant": "AWGF", "enrichment ratio": "≤ 0.25"}, {"variant": "VCSD", "enrichment ratio": "≤ 0.25"}, {"variant": "YHEV", "enrichment ratio": "≤ 0.25"}, {"variant": "WDPN", "enrichment ratio": "≤ 0.25"}, {"variant": "DHLY", "enrichment ratio": "≤ 0.25"}, {"variant": "QHNS", "enrichment ratio": 5.2}, {"variant": "SHFW", "enrichment ratio": 1.68}, {"variant": "KDFA", "enrichment ratio": "≤ 0.25"}, {"variant": "AGAC", "enrichment ratio": 3.28}, {"variant": "YRFK", "enrichment ratio": "≤ 0.25"}, {"variant": "SYTC", "enrichment ratio": "≤ 0.25"}, {"variant": "DRWG", "enrichment ratio": "≤ 0.25"}, {"variant": "PFVP", "enrichment ratio": "≤ 0.25"}, {"variant": "QYPH", "enrichment ratio": "≤ 0.25"}, {"variant": "AEKS", "enrichment ratio": "≤ 0.25"}, {"variant": "ICPC", "enrichment ratio": "≤ 0.25"}, {"variant": "NADQ", "enrichment ratio": "≤ 0.25"}, {"variant": "LNYV", "enrichment ratio": "≤ 0.25"}, {"variant": "MWTR", "enrichment ratio": "≤ 0.25"}, {"variant": "HEIS", "enrichment ratio": "≤ 0.25"}, {"variant": "KQVA", "enrichment ratio": "≤ 0.25"}, {"variant": "DSKD", "enrichment ratio": "≤ 0.25"}, {"variant": "YNYP", "enrichment ratio": "≤ 0.25"}, {"variant": "LCSL", "enrichment ratio": "≤ 0.25"}, {"variant": "VRAR", "enrichment ratio": "≤ 0.25"}, {"variant": "KYPV", "enrichment ratio": "≤ 0.25"}, {"variant": "LKVW", "enrichment ratio": "≤ 0.25"}, {"variant": "VWEA", "enrichment ratio": "≤ 0.25"}, {"variant": "QPQI", "enrichment ratio": "≤ 0.25"}, {"variant": "IDKS", "enrichment ratio": "≤ 0.25"}, {"variant": "NYWP", "enrichment ratio": "≤ 0.25"}, {"variant": "PHQV", "enrichment ratio": "≤ 0.25"}, {"variant": "GQCF", "enrichment ratio": "≤ 0.25"}, {"variant": "KPGV", "enrichment ratio": "≤ 0.25"}, {"variant": "SVMT", "enrichment ratio": 4.75}, {"variant": "KPHS", "enrichment ratio": "≤ 0.25"}, {"variant": "MHYG", "enrichment ratio": "≤ 0.25"}, {"variant": "ILHL", "enrichment ratio": "≤ 0.25"}, {"variant": "ALGW", "enrichment ratio": 8.41}, {"variant": "TQWM", "enrichment ratio": "≤ 0.25"}, {"variant": "YQPA", "enrichment ratio": "≤ 0.25"}, {"variant": "NKDR", "enrichment ratio": "≤ 0.25"}, {"variant": "SYYP", "enrichment ratio": "≤ 0.25"}, {"variant": "ESGE", "enrichment ratio": "≤ 0.25"}, {"variant": "IMSW", "enrichment ratio": "≤ 0.25"}, {"variant": "DFDD", "enrichment ratio": "≤ 0.25"}, {"variant": "FVQI", "enrichment ratio": "≤ 0.25"}, {"variant": "GTTW", "enrichment ratio": "≤ 0.25"}, {"variant": "LEKT", "enrichment ratio": "≤ 0.25"}, {"variant": "YDPS", "enrichment ratio": "≤ 0.25"}, {"variant": "VGVT", "enrichment ratio": "≤ 0.25"}, {"variant": "YGSH", "enrichment ratio": "≤ 0.25"}, {"variant": "SSME", "enrichment ratio": 16.6}, {"variant": "HREF", "enrichment ratio": "≤ 0.25"}, {"variant": "RADA", "enrichment ratio": "≤ 0.25"}, {"variant": "WQPI", "enrichment ratio": "≤ 0.25"}, {"variant": "DDQW", "enrichment ratio": "≤ 0.25"}, {"variant": "GTAN", "enrichment ratio": "≤ 0.25"}, {"variant": "LDWI", "enrichment ratio": "≤ 0.25"}, {"variant": "EKDC", "enrichment ratio": "≤ 0.25"}, {"variant": "RIHT", "enrichment ratio": "≤ 0.25"}, {"variant": "MKEL", "enrichment ratio": "≤ 0.25"}, {"variant": "WEVV", "enrichment ratio": "≤ 0.25"}, {"variant": "FQCI", "enrichment ratio": "≤ 0.25"}, {"variant": "MPQC", "enrichment ratio": "≤ 0.25"}, {"variant": "GPRA", "enrichment ratio": "≤ 0.25"}, {"variant": "QSKG", "enrichment ratio": "≤ 0.25"}, {"variant": "DAPC", "enrichment ratio": "≤ 0.25"}, {"variant": "TQIK", "enrichment ratio": "≤ 0.25"}, {"variant": "HCFW", "enrichment ratio": "≤ 0.25"}, {"variant": "KGIH", "enrichment ratio": "≤ 0.25"}, {"variant": "FLLN", "enrichment ratio": "≤ 0.25"}, {"variant": "MVLK", "enrichment ratio": 1.76}, {"variant": "AFFL", "enrichment ratio": "≤ 0.25"}, {"variant": "WQIG", "enrichment ratio": "≤ 0.25"}, {"variant": "YAVV", "enrichment ratio": "≤ 0.25"}, {"variant": "HQSE", "enrichment ratio": "≤ 0.25"}, {"variant": "LSNL", "enrichment ratio": "≤ 0.25"}, {"variant": "LMGS", "enrichment ratio": "≤ 0.25"}, {"variant": "EVIS", "enrichment ratio": "≤ 0.25"}, {"variant": "YPPA", "enrichment ratio": "≤ 0.25"}, {"variant": "YNIR", "enrichment ratio": "≤ 0.25"}, {"variant": "SGDA", "enrichment ratio": "≤ 0.25"}, {"variant": "RNGI", "enrichment ratio": "≤ 0.25"}, {"variant": "FINQ", "enrichment ratio": "≤ 0.25"}, {"variant": "LLSE", "enrichment ratio": "≤ 0.25"}, {"variant": "VYRD", "enrichment ratio": "≤ 0.25"}, {"variant": "RFAD", "enrichment ratio": "≤ 0.25"}, {"variant": "LSYY", "enrichment ratio": 2.31}, {"variant": "VWKV", "enrichment ratio": "≤ 0.25"}, {"variant": "TCVR", "enrichment ratio": "≤ 0.25"}, {"variant": "RSLS", "enrichment ratio": "≤ 0.25"}, {"variant": "PSCV", "enrichment ratio": "≤ 0.25"}, {"variant": "SFPY", "enrichment ratio": "≤ 0.25"}, {"variant": "ILRQ", "enrichment ratio": "≤ 0.25"}, {"variant": "PIVT", "enrichment ratio": "≤ 0.25"}, {"variant": "VLIT", "enrichment ratio": "≤ 0.25"}, {"variant": "GCHK", "enrichment ratio": "≤ 0.25"}, {"variant": "VRFK", "enrichment ratio": "≤ 0.25"}, {"variant": "VWLR", "enrichment ratio": "≤ 0.25"}, {"variant": "VSPI", "enrichment ratio": "≤ 0.25"}, {"variant": "IVDP", "enrichment ratio": "≤ 0.25"}, {"variant": "EDMI", "enrichment ratio": "≤ 0.25"}, {"variant": "MPTK", "enrichment ratio": "≤ 0.25"}, {"variant": "NGKF", "enrichment ratio": 0.291}, {"variant": "NSSN", "enrichment ratio": "≤ 0.25"}]}]}
